Reference: paper PMC2704394 (2009)
Substitutions are numbered along the chain they refer to. Names and notes keep the numbering of the source. No constants are given. Whether binding was seen depends on the method and setting. Some results given as binding are weak or reduced against the parent protein; the word gives no strength. For some of these results: Where a sequence is shown, tags or fusion partners need not be part of it. Values belong to the binder of their own block, whether it stands above or below them.

Protein sequences, listed by entry. Tags and fused reporters are not part of them.
UniProt Q09196: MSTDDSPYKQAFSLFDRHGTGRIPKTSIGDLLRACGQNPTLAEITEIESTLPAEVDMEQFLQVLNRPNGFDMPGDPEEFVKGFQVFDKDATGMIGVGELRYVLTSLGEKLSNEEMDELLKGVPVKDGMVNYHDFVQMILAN

What was measured:
[1] = molecular target: S. pombe Cdc4 fused to the GAL4 DNA binding domain (S. pombe) (UniProt Q09196); assay: two-hybrid; Cdc4 fused to GAL4-DB (pBI880) as bait, Pik1 507-851 fused to GAL4-TA (pBI771) as prey, S. cerevisiae YPB2; colony formation at 30°C for 7-9 days on SD -leucine -tryptophan -histidine +3-AT; X-gal colony filter assay
[2] = molecular target: purified Cdc4 protein (S. pombe) (UniProt Q09196); assay: ELISA; wells coated with purified Cdc4 at 10 µg/ml; two-fold dilutions of S. pombe cell lysates (56 µg to 14 µg protein) in PBS, 16 h at 4°C; detected with rabbit anti-Pik1 serum and anti-rabbit IgG-HRP; only the target purified

B4: full length S. pombe Pik1, wild type (enzyme, UniProt Q10366 1-851)
chain: MPSSNSGNELLLRFFESAHFTSQLCVAYLSRYPNNIGIHHFLCEKLATFPYEEIEFFIPQLIHLVLNKDSESVALEEFIISQCEQNTQCALITFWYLQAHMVDLGLQPHSSCFKICKRLYNRIQILVFMSSSSLIQSQQKISENVTPALILSGIMLGGVCVPELLKKAGPIAIAQGRKAPRQDPDESDVDVLRRLSTEPRYSLDVLRSSLNNSIVEQHSEVSLRLKAPELTRTHSYQSSATLSIDEQRRVLRSNYFQQEIQFLFALQDISIRLIIVPRQARLSSLRAELALLNNNLPADVNIPLLRSYHKEVSHKIVRIDPKEATILNSAERVPYLIMVEVLSGELSFEPQSKKNKAKVQKIVSHKNQRKRWFDLTDVDPYTNLQDSTDNDISESESEGGDLSMSPLIKGLVPDTLSLSKSFSSFGNVSLQVPSSHRDTDVVLLSGRHSDSDGNGALKRSKIYASEITARMRAAATMLSQLDAEGSRRPKAETERIKNSIILDMQRLEEERLNEPSIYPVSVDISCAEDLRFGKETQKAERKGDRDDPSAATFQEDWYAKKERIRKSSPYGHYPNWDLVSVIVKTGADLRQETFACQLIYAFQRVWLECKEKVWVRRMKILVTGDNSGLIETITNAISVHSIKKNLTKQLREAELAQGKIAGKNVVTLKDYFIKQFGDPNSSRYRQAQTNFLQSLVAYSIISYLLQLKDRHNGNVLIDSEGHIIHIDFGFLLTNTPGNVGFESAPFKLTADYLEILDDRFDEYRSLMKAAFKSVRKNADQIILLVEVMQNNSTMPCFRAGENTSAQLLQRFQLQLGDKECDDFVDLLIQKANCSVWTRLYDLFQNITNGIY
binding [2]: binds

B5: full length S. pombe Pik1 D709A, R838A (enzyme, UniProt Q10366 1-851)
chain: B4 chain with D709A, R838A
binding [2]: no binding (tested: lysate with 56 µg to 14 µg protein)

B7: full length S. pombe Pik1 R838A (enzyme, UniProt Q10366 1-851)
chain: B4 chain with R838A
binding [2]: no binding (tested: lysate with 56 µg to 14 µg protein)

Results, then the binder that gave them:

binding [1]: binds
B1: S. pombe Pik1 C-terminal region (residues 507-851), wild type, fused to the GAL4 transcription activation domain (domain or fragment, UniProt Q10366 507-851)
chain: LEEERLNEPSIYPVSVDISCAEDLRFGKETQKAERKGDRDDPSAATFQEDWYAKKERIRKSSPYGHYPNWDLVSVIVKTGADLRQETFACQLIYAFQRVWLECKEKVWVRRMKILVTGDNSGLIETITNAISVHSIKKNLTKQLREAELAQGKIAGKNVVTLKDYFIKQFGDPNSSRYRQAQTNFLQSLVAYSIISYLLQLKDRHNGNVLIDSEGHIIHIDFGFLLTNTPGNVGFESAPFKLTADYLEILDDRFDEYRSLMKAAFKSVRKNADQIILLVEVMQNNSTMPCFRAGENTSAQLLQRFQLQLGDKECDDFVDLLIQKANCSVWTRLYDLFQNITNGIY

binding [1]: binds
B2: S. pombe Pik1 C-terminal region (residues 507-851) D709A fused to the GAL4 transcription activation domain (domain or fragment, UniProt Q10366 507-851)
chain: B1 chain with D203A

binding [1]: no binding
B3: S. pombe Pik1 C-terminal region (residues 507-851) R838A fused to the GAL4 transcription activation domain (domain or fragment, UniProt Q10366 507-851)
chain: B1 chain with R332A

binding [2]: binds
B6: full length S. pombe Pik1 D709A (enzyme, UniProt Q10366 1-851)
chain: B4 chain with D709A
